Experimental data taken from PubChem BioAssay (NCI).
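Five concentrations, 48 hours, 96-well plates. At the GI50, growth is halved. TGI: total growth inhibition.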

System: NCI-H322M lung
Assay: NCI anticancer screen, dose series, 48 h

| Structure (SMILES) | GI50 [µM] | TGI [µM] |
| --- | --- | --- |
| Clc1ccc2oc3c(NCCCN4CCOCC4)c4ccccc4nc3c2c1 | 1.76 | 8.8 |
| Clc1ccc2c(N/N=C/c3c[nH]c4ccccc34)ccnc2c1 | 1.73 | 3.12 |
| COc1cc2c3c(n(CCCNC4CCCCC4)c(=O)c2cc1OC)-c1cc2c(cc1C3=O)OCO2 | 17.5 | 48.2 |
